This is an account of results in PubChem BioAssay AID1159614 (National Center for Advancing Translational Sciences (NCATS), 2016).

Screen size: about 45,000 compounds; about 65 (0.1%) were called active. Calls follow the shape of the dose curve; as a rule, active = well fitted activation curve with a large enough effect; inconclusive = small, poorly fitted or top-dose-only effect; inactive = no such curve, though single readings can be large or run the other way. The list shows a part of the results.

UniProt P54803, sequence (P54803 whole entry, looked up): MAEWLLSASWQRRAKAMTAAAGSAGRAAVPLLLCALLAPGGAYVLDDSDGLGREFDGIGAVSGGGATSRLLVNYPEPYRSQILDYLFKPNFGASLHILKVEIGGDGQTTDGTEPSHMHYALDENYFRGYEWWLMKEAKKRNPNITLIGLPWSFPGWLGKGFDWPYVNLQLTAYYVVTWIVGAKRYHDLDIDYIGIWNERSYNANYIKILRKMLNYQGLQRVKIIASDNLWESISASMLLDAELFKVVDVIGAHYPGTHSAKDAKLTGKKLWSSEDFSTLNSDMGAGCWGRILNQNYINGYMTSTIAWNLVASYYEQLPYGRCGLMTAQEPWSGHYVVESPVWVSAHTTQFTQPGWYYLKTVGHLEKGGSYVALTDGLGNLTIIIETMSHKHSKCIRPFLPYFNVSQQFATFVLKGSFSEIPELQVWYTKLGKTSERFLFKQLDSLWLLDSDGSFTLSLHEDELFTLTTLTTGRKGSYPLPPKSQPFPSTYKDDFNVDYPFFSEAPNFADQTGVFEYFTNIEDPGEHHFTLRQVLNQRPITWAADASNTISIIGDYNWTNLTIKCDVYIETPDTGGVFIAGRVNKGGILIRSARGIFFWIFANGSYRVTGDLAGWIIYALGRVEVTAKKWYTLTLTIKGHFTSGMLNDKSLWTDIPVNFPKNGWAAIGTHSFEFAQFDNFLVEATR

For this assay, the target named is Galactocerebrosidase (Homo sapiens) (UniProt P54803). The assay can be described thus: A Novel Cell-Based Assay to Identify Small Molecules for B -Galactocerebrosidase. Also: 0% is about no effect; nearly all actives have a fitted effect of over 65% in size. Conditions: 145M-Twi-hGALC-G270D cells (Twitcher mouse brain line with human GALC G270D), HMU-beta-Gal fluorescence, 48 h; series mostly up to 57.5 µM; activation: at the top concentration. A digest of the protocol:
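Brain-derived Twitcher mouse 145M-Twi cells stably expressing human GALC-G270D or wild-type GALC, treated live, then residual GALC activity read by fluorescence of HMU-b-Gal substrate (0.1 mM final) in citrate-phosphate buffer pH 5.2 with sodium taurocholate. Signal increase indicates enhancement.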
On to `Cc1ccc(S(=O)(=O)c2nnn3c2nc(N2CCOCC2)c2sccc23)cc1C`, for which the “activation” value is inactive: -9.12%.
Regarding `COc1ccccc1N1CCN(S(=O)(=O)c2c(C)sc3ncn(CC(=O)Nc4ccc(C)cc4Br)c(=O)c23)CC1`, the “activation” value is inactive: -23.2%.
Still for that read-out and setting: in the case of `Cc1ccc(Nc2sc(C(=O)c3ccc(F)cc3)c(N)c2S(=O)(=O)c2ccc(C)cc2)cc1` it was inactive: -24%; in that of `Fc1ccc(-c2nn(-c3ccc(Cl)cc3)c3c2cnc2ccc(F)cc23)cc1`, inactive: -7.89%; in that of `CCOc1ccccc1NC(=O)Cn1c(=O)n(Cc2cccs2)c(=O)c2cccnc21`, inactive: 4.5%.
Consider `CCC(C(=O)NCCc1cc(OC)ccc1OC)n1nc(C)c2c(C)n(-c3ccccc3)nc2c1=O` (stereo not given), for which the “activation” value was inactive: 3.04%.
Still for that read-out and setting: for `CC(Sc1nc(=O)cc(N)n1CCc1ccccc1)C(=O)Nc1cccc(Cl)c1` (stereo not given) the value was inactive: -4.02%.
Still for that read-out and setting: in the case of `COc1ccc(-n2c(=O)c3ccccc3n(Cc3ccccc3Cl)c2=O)cc1` it was inactive: 0.731%; in that of `COc1ccc(OC)c(NC(=O)Cn2c(=O)cc(C)c3c(C)nn(-c4cccc(Cl)c4C)c32)c1`, inactive: -3.81%; in that of `CN1CC(=O)Nc2cc(C(=O)O)ccc21`, inactive: -12.4%.
Consider `O=C(CN1C(=O)CCSc2ccccc21)Nc1ccc(C(F)(F)F)cc1`, for which the “activation” value is inactive: 14.2%.
In the case of `Cc1ccc(CNC(=O)C2CCCN(c3ncnc4onc(-c5ccc(F)cc5)c34)C2)cc1` (stereo not given), the “activation” value was inactive: -8.99%.
Still for that read-out and setting: for `CCCN1Cc2cccc(C(=O)Nc3ccccc3C(=O)OC)c2C1=O` the value was inactive: -16.3%; for `CCOc1ccc(NC(=O)CN2CCN(CC(=O)Nc3ccc(F)cc3F)CC2)cc1`, inactive: -10.9%.
Still for that read-out and setting: for `CCOC(=O)c1ccccc1NC(=O)Cn1ccn2nc(-c3ccc(OCC)cc3)cc2c1=O` the value was inactive: -16.4%; for `CCOc1ccccc1C(=O)Nc1ccc(S(=O)(=O)N(Cc2ccccc2)c2ccccc2)cc1`, inactive: -13.1%; for `Cc1ccc(-n2cc(C(=O)OCc3ccc(F)c(F)c3)c3ccccc3c2=O)cc1`, inactive: -10.6%.
For the compound `Cc1ccccc1-c1noc(-c2nnn(-c3ccccc3C)c2N)n1`, the “activation” value is inactive: -15.1%.
Consider `Cc1cccc(C(=O)N(Cc2ccccc2F)C2CCS(=O)(=O)C2)c1` (stereo not given), for which the “activation” value is inactive: -17.6%.
`COc1ccc(Cc2nc3c4cnn(-c5cccc(F)c5)c4ncn3n2)cc1`: the “activation” value is inactive: -2.07%.
On the same count and under the same terms, for `COC(=O)c1c(NC(=O)COc2cccc(C(F)(F)F)c2)sc2c1CCCC2` the value was inactive: -17.7%; for `COc1ccc(N2CCN(C(=O)c3cnn(-c4ccc(OC)cc4)c3C3CCN(C(=O)OC(C)(C)C)CC3)CC2)cc1`, inactive: -14.5%; for `COc1cc(C(=O)N2CCN(C(=O)COc3cccc(C)c3)CC2)cc(OC)c1OC`, inactive: -15.5%.
Take `CCN(CC)c1ccc(NS(=O)(=O)c2cc(-c3cc(C)no3)ccc2C)c(C)c1`: the “activation” value was inactive: -30.6%.
As to `CCCNC(=O)N1CCCN(S(=O)(=O)c2ccc3c(ccn3CC)c2)CC1`, the “activation” value is inactive: -3.46%.
For `CCCCOc1cccc(C(=O)N2CCN(CCc3ccncc3)CC2)c1`, the “activation” value was inactive: -8.79%.
On the same count and under the same terms, in the case of `Cc1c(Cl)cccc1-c1ccc(/C=C(\C#N)c2nc3ccccc3[nH]2)o1` it was inactive: -15.2%; in that of `Cc1cccc(C)c1-n1ncc(C(=O)NC2CCCC2)c1C1CCN(C(=O)OC(C)(C)C)CC1`, inactive: 12.3%.
As for `O=C(c1ccc2c(c1)CCN2S(=O)(=O)c1ccc(Cl)cc1)N1CCN(c2ccc(F)cc2)CC1`, the “activation” value was inactive: -11.4%.
Still for that read-out and setting: for `CCOc1ccc(NC(=O)NCc2cccn2Cc2ccccc2)cc1` the value was inactive: -16%; for `Cc1nnc(N2C(=O)c3oc4ccccc4c(=O)c3C2c2ccc(Cl)cc2)s1` (stereo not given), inactive: -22.6%; for `Cc1ccc2c(c1)C(=O)OC(C(=O)Nc1ncc(Cc3ccc(Cl)cc3)s1)C2` (stereo not given), inactive: -13.1%.
`Cc1c(C(=O)OC2CCCCCC2)[nH]c2c1C(=O)CC(c1ccc(Cl)cc1)C2` (stereo not given): the “activation” value was inactive: -22.4%.
For the compound `O=C(O)c1cc(-c2ccccc2)nc2ccccc12`, the Potency result is “inactive”.
`O=C(COc1ccc(Cl)cc1Cl)Nc1cccc2cccnc12`: the “activation” value is inactive: -11%.
Take `CC(=O)O[C@]1(C(C)=O)CC[C@H]2[C@@H]3C[C@H](C)C4=CC(=O)CC[C@]4(C)[C@H]3CC[C@@]21C`: the “activation” value was inactive: -3.92%.
Take `Cc1cc(C)cc(NC(=O)Cn2cc(C(=O)c3cccs3)c3ccccc32)c1`: the “activation” value was inactive: -9.07%.
The same measure, in the same setting: in the case of `COc1ccc(Nc2c(-c3ccc(C)o3)nc3cc(C)ccn23)cc1` it was inactive: -11.4%; in that of `Cc1ccc2oc(-c3ccc(C)c(NC(=O)/C=C/c4ccc(Cl)cc4)c3)nc2c1`, inactive: 0.365%.
`Clc1cccc(C(c2ccc3nc[nH]c3c2)n2ccnc2)c1` (stereo not given): the “activation” value is inactive: -7.38%.
As for `Cc1ccc2[nH]c3c(=O)n(CC(=O)N(CCN(C)C)Cc4ccccc4)ncc3c2c1`, the “activation” value is inactive: -10.8%.
The same measure, in the same setting: for `CC(=O)N1CCC(N(Cc2ccco2)C(=O)Nc2ccc(C)c(Cl)c2)CC1` the value was inactive: -2.07%; for `CC(C)NCC(O)c1ccc2ccccc2c1` (stereo not given), inactive: -13.9%; for `COc1cc(NC(=O)c2nc3nc(C)cc(C(F)F)n3n2)c(OC)cc1Cl`, inactive: -6.82%.
The same measure, in the same setting: in the case of `CCOc1ccc(N2CC(NC(=O)C3CCCCC3)CC2=O)cc1` (stereo not given) it was inactive: 4.7%; in that of `Cc1ccc(CNC(=O)c2ccc(CN3CC(=O)N4CCCCC4C3=O)cc2)cc1` (stereo not given), inactive: -16.8%; in that of `CCOC(=O)CNC(=O)N1[C@H](c2cccs2)[C@@H](C)C(=O)[C@@H](C)[C@@H]1c1cccs1`, inactive: -3.8%.
On to `O=S1(=O)c2ccccc2N(Cc2ccc(Cl)cc2)c2ccccc21`, for which the “activation” value was inactive: -2.57%.
Regarding `CCc1c(C)nc2nncn2c1NCc1ccccc1`, the “activation” value was inactive: -9.38%.
The same measure, in the same setting: for `COc1ccc(S(=O)(=O)N2CCN(c3cccc(C)c3C)CC2)c2ccccc12` the value was inactive: 7.11%; for `COc1ccc2c(c1)c(=O)c(C(=O)c1ccc(F)cc1)cn2CC(=O)Nc1ccc2c(c1)OCO2`, inactive: -19.9%; for `CCCCOc1ccc(Cn2c(=O)oc3ccc(C)cc32)cc1OC`, inactive: -14.8%.
On the same count and under the same terms, for `CCc1nnc(NC(=O)c2nc(SCc3ccccc3F)ncc2Cl)s1` the value was inactive: -7.08%; for `COc1ccc(Cl)cc1C(=O)Nc1nnc2n1CCS2`, inactive: -8.73%.
In the case of `Cc1ccc(NC(=O)C2CCN(c3nnc(C)c4c(C)n(-c5ccccc5)nc34)CC2)c(Cl)c1`, the “activation” value is inactive: 7.86%.
Still for that read-out and setting: for `CC(C)CCNC(=O)Cn1c(-c2cccs2)cc2cc(F)ccc21` the value was inactive: -9.4%; for `Cc1cc(Br)ccc1NC(=O)c1sc2nc3n(c(=O)c2c1C)CCCC3`, inactive: -12.8%.
On the same count and under the same terms, for `O=C(CCCCCn1c(=O)c2sccc2n(Cc2ccc(Cl)cc2)c1=O)NCc1ccc2c(c1)OCO2` the value was inactive: -23.7%.
On the same count and under the same terms, for `Cc1ccc(S(=O)(=O)N(CC(=O)NCCSc2ccc(Cl)cc2)c2ccccc2C)cc1` the value was inactive: -17.9%; for `COCCCNC(=O)CCn1c(=O)c2ccccc2n(CC(=O)Nc2cc(Cl)ccc2OC)c1=O`, inactive: -21.4%.
As to `CCN(Cc1ccccc1)Cc1c(O)ccc2oc(C)c(C(=O)Nc3ccc(C)cc3C)c12`, the “activation” value is inactive: -9.16%.
Regarding `C=Cc1ccc(Cn2c(=O)n(-c3cccc(Cl)c3)c(=O)c3c4c(sc32)CN(C(C)=O)CC4)cc1`, the “activation” value is inactive: -6.73%.
On the same count and under the same terms, for `O=C(NCCc1ccc(Cl)cc1)c1ccc2c(c1)N(Cc1ccc(Cl)cc1)C(=O)CS2` the value was inactive: -8.24%.
In the case of `Cc1cc(C)c(NC(=O)Cn2nnc(S(=O)(=O)c3ccc(C)c(C)c3)c2N)c(C)c1`, the “activation” value was inactive: -28.1%.
Turning to `CC(C)c1ccc(NC(=O)N2c3ccccc3Sc3ccccc32)cc1`, the “activation” value is inactive: -13.4%.
Same read-out and setting: for `CN1C(C(=O)Nc2cccc(O)c2)=CC(c2ccco2)=NS1(=O)=O` the value was inactive: -9.09%.
As for `CCCCN(CC)c1nc(-c2ccccc2F)nc2ccccc12`, the “activation” value was inactive: -11.8%.
On the same count and under the same terms, for `Cc1cccc(N2CCn3c2nc2c3c(=O)n(C/C=C/c3ccccc3)c(=O)n2C)c1` the value was inactive: -4.61%; for `Cc1ccc(NC(=O)Cn2c(=O)n(Cc3nc(C)no3)c(=O)c3cc4c(cc32)OCO4)cc1`, inactive: -3.26%.
Same read-out and setting: for `Cc1cc(NS(=O)(=O)c2ccc3oc(=O)c4ncn(C)c4c3c2)ccc1Br` the value was inactive: -7.99%.
Still for that read-out and setting: for `CC(C)c1ccc(N2C(=O)CSC23C(=O)N(Cc2ccccc2)c2ccccc23)cc1` (stereo not given) the value was inactive: -43%; for `COc1cccc(CNC(=O)C(C)n2c(=O)cc(-c3ccccc3)c3c(C)nn(C)c32)c1` (stereo not given), inactive: -36.9%; for `O=C(Cn1cc(SCc2c(F)cccc2Cl)c2ccccc21)N1CCCC1`, inactive: -44%.
Consider `O=C(/C=C/c1ccccc1Cl)Nc1nc(-c2cccs2)ns1`, for which the “activation” value is inactive: -3.08%.
For `COc1ccc(NC(=O)N2CCN(S(=O)(=O)c3ccc4c(ccn4C)c3)CC2)c(OC)c1`, the “activation” value was inactive: 6.06%.
On to `CN(Cc1ccccc1)C(=O)CSc1nc(-c2ccc(F)cc2)cc(C(F)(F)F)n1`, for which the “activation” value is inactive: 3.08%.
Still for that read-out and setting: in the case of `COCCOC(=O)c1c(-c2ccccc2)c(-c2ccccc2)nn(C)c1=O` it was inactive: -5.96%; in that of `COc1ccc(NC(=O)C2CCCN(c3nnc(C)c4c(C)n(-c5ccccc5)nc34)C2)cc1Cl` (stereo not given), inactive: -6.89%; in that of `CCc1ccccc1NC(=O)Cn1c(=O)n(Cc2ccc(OC)cc2)c(=O)c2oc3ccccc3c21`, inactive: -3.67%.
As to `CCOc1ccc(CC(=O)Nc2c(C(=O)c3ccccc3)oc3ccc(OC)cc23)cc1OCC`, the “activation” value is inactive: -15.1%.
For `CCCC(CCC)C(=O)NC1CC(=O)N(c2ccc3c(c2)OCCO3)C1` (stereo not given), the “activation” value is inactive: -8.35%.
As for `O=C(Nc1nnc(S(=O)(=O)N2CCc3ccccc32)s1)c1cccc(Cl)c1`, the “activation” value is inactive: -3.48%.
As to `Cc1ccc(/C=C(\C#N)c2nc3ccccc3c(=O)[nH]2)cc1`, the “activation” value was inactive: -13.9%.
For the compound `Cc1ccc(C)c(N2CCN(C(=O)c3cnn(-c4ccccc4Cl)c3C3CCN(C(=O)OC(C)(C)C)CC3)CC2)c1`, the “activation” value was inactive: -9.87%.
For `COc1ccc(Cc2nc3ccc(C(=O)NCc4ccccc4Cl)cc3o2)cc1`, the “activation” value was inactive: -25.5%.
Same read-out and setting: for `O=C(CSc1nc(-c2ccc(F)cc2)[nH]c1-c1ccc(F)cc1)Nc1ccc2c(c1)OCCO2` the value was inactive: -11.8%; for `Cc1ccc(NC(=O)C2CC(=O)N(c3ccc(OC(C)C)cc3)C2)cc1` (stereo not given), inactive: -0.941%.
For `CCN(CC)c1ccc(NC(=O)C2CCN(S(=O)(=O)c3cnc[nH]3)CC2)c(C)c1`, the “activation” value is inactive: -10.1%.
Same read-out and setting: in the case of `CCOC(=O)c1c(C)c(-c2ccccc2)n(CC(=O)NC(CC)Cc2ccccc2)c1C` (stereo not given) it was inactive: -10.6%; in that of `O=C(COc1ccc(Cl)cc1)Nc1ccccc1OCc1cc(=O)n2ccccc2n1`, inactive: -7.56%.
Still for that read-out and setting: in the case of `CCOc1ccc(CC(=O)NCC(c2cccs2)S(=O)(=O)c2ccc(F)c(C)c2)cc1` (stereo not given) it was inactive: -3.31%.
With `CCc1ccc(NC(=O)C(CC)n2c(=O)c(-c3ccccc3NC(C)=O)nc3ccccc32)cc1` (stereo not given), the “activation” value is inactive: -4.34%.
Take `COc1ccc(S(=O)(=O)NCC(c2ccc(N(C)C)cc2)N2CCc3ccccc32)cc1OC` (stereo not given): the “activation” value is inactive: 7.29%.
Still for that read-out and setting: for `CCc1ccccc1N(C)C(=O)c1ccc2c(=O)n3c(nc2c1)CCCCC3` the value was inactive: -6.34%; for `Cc1ccc(Nc2nnc(-c3ccc(C)c(S(N)(=O)=O)c3)c3ccccc23)cc1`, inactive: -11.6%.
